Results as given in the supplement of paper PMC4967469.
Lines with a small IC50 respond at low doses; a limit (>, <) means that the fit lies beyond the doses tested. AUC, from the same fit, is the share of area under the viability curve across the 256-fold dose range: 1 means no effect, lower means more sensitive. Any top dose called inferred comes from the curve model; the source does not state it.

These cell lines were tested with Nc1[nH]nc2nnc(-c3c(-c4ccccc4)nn4ccccc34)cc12 [FR-180204] (assay: Viability of human cancer cell lines after 72 h of drug (GDSC screen)). Conditions: top dose 20 µM; top dose inferred.
Method: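 Human cancer cell lines in 384-well plates, medium with 10% serum, drug for 72 h over a 256-fold dose range (nine 2-fold or five 4-fold steps up to the top dose). Adherent lines were fixed and stained with the nucleic acid dye Syto60, suspension lines read with resazurin; signal relative to control wells, capped at 0 and 100%. One two-parameter sigmoid per drug and line, fitted in a mixed model over all curves with the slope shared within a line.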

| Cell Line | AUC | IC50 |
| --- | --- | --- |
| 201T (lung adenocarcinoma, adherent) | 0.951 | > 20 µM |
| A2058 (melanoma, adherent) | 0.99 | > 20 µM |
| A2780 (ovary, semi-adherent) | 0.925 | > 20 µM |
| AGS (stomach, adherent) | 0.988 | > 20 µM |
| AU565 (breast, adherent) | 0.969 | > 20 µM |
| BB30-HNC (head and neck, adherent) | 0.963 | > 20 µM |
| BC-3 (B-cell lymphoma, suspension) | 0.98 | > 20 µM |
| BICR31 (head and neck, adherent) | 0.971 | > 20 µM |
| CAL-148 (breast, suspension) | 0.987 | > 20 µM |
| CAPAN-1 (pancreas, adherent) | 0.953 | > 20 µM |
| CHP-134 (neuroblastoma, suspension) | 0.965 | > 20 µM |
| COR-L303 (small cell lung carcinoma, suspension) | 0.97 | > 20 µM |
| COR-L311 (small cell lung carcinoma, suspension) | 0.984 | > 20 µM |
| CTV-1 (acute myeloid leukaemia, suspension) | 0.976 | > 20 µM |
| Calu-3 (lung adenocarcinoma, adherent) | 0.983 | > 20 µM |
| Caov-3 (ovary, adherent) | 0.97 | > 20 µM |
| DJM-1 (skin, adherent) | 0.981 | > 20 µM |
| ES-2 (ovary, adherent) | 0.991 | > 20 µM |
| EW-11 (Ewing sarcoma, adherent) | 0.911 | > 20 µM |
| FADU (head and neck, adherent) | 0.986 | > 20 µM |
| GCIY (stomach, adherent) | 0.971 | > 20 µM |

| Cell Line | AUC | IC50 |
| --- | --- | --- |
| H-EMC-SS (chondrosarcoma, adherent) | 0.931 | > 20 µM |
| HCC1599 (breast, suspension) | 0.958 | > 20 µM |
| HCC-33 (small cell lung carcinoma, adherent) | 0.986 | > 20 µM |
| Hep 3B2_1-7 (liver, adherent) | 0.985 | > 20 µM |
| HuP-T4 (pancreas, adherent) | 0.983 | > 20 µM |
| IGR-1 (melanoma, adherent) | 0.981 | > 20 µM |
| JHU-011 (head and neck, adherent) | 0.971 | > 20 µM |
| JSC-1 (B-cell lymphoma, suspension) | 0.964 | > 20 µM |
| KMS-12-BM (myeloma, suspension) | 0.971 | > 20 µM |
| KP-3 (pancreas, adherent) | 0.968 | > 20 µM |
| KP-N-YS (neuroblastoma, adherent) | 0.969 | > 20 µM |
| KYSE-140 (oesophagus, adherent) | 0.911 | > 20 µM |
| KYSE-150 (oesophagus, adherent) | 0.979 | > 20 µM |
| KYSE-410 (oesophagus, adherent) | 0.982 | > 20 µM |
| LK-2 (lung squamous cell carcinoma, adherent) | 0.989 | > 20 µM |
| MDA-MB-157 (breast, adherent) | 0.987 | > 20 µM |
| MDA-MB-468 (breast, adherent) | 0.985 | > 20 µM |
| MHH-NB-11 (neuroblastoma, adherent) | 0.936 | > 20 µM |
| MIA-PaCa-2 (pancreas, adherent) | 0.982 | > 20 µM |
| MKN28 (stomach, adherent) | 0.953 | > 20 µM |
| ML-2 (acute myeloid leukaemia, suspension) | 0.936 | > 20 µM |
